Values joined by “and” are separate entries in the source; they are usually repeats but may differ in a detail not shown here. Equal values may be shown once. Screen size: about 210,000 compounds; about 730 (0.35%) were called active. Inconclusive results, whose numbers are uncertain, are shown with a selection of clear calls. Calls come from the whole dose curve; as a rule, active = well fitted inhibition curve with a large enough effect; inconclusive = small, poorly fitted or top-dose-only effect; inactive = no such curve, though single readings can be large or run the other way. Where the call is inconclusive, the potency comes from a doubtful curve fit.
assay: qHTS Assay for Identifying the Cell-Membrane Permeable IMPase Inhibitors: Potentiation with Lithium; conditions: CHO-M1 cells, IP1 TR-FRET (IP-One), carbachol + lithium; series mostly up to 59.4 µM; note: nearly all actives have a fitted effect of over 50% in size
Outline: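 CHO cells stably expressing M1 receptor (2000/well, cultured 16–30 h) treated 30 min at 37C with compound plus low lithium. Cytosolic IP1 by TR-FRET (665/620 ratio and 620 channel) after 10 min lysis; AC50 by Hill fit.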
Potency is the fitted concentration of half-maximal effect.

SMILES	Potency
COc1ccccc1C(=O)Nc1cc2cc(Cl)ccc2oc1=O	inconclusive: 28.2 µM [inhibitor, single point]
NS(=O)(=O)c1ccc(NC(=S)NC(=O)c2ccc(-c3ccccc3)cc2)cc1	active: 11.2 µM
Cc1c(/C(O)=C2/C(=O)C(=O)N(Cc3cccnc3)C2c2ccccn2)cnn1-c1ccccc1 (centres undefined)	inconclusive: 10 µM [inhibitor, partial curve]
Nc1nc(Nc2ccccc2)nc2c1ncn2[C@@H]1O[C@H](CO)[C@H](O)[C@H]1O	inactive
O=C(CNC(=O)c1cccc(OC(F)F)c1)OCc1cc(=O)n2cc(Br)ccc2n1	inconclusive: 11.2 µM [inhibitor, partial curve]
O=C(Cc1sc(-c2ccccc2Cl)nc1-c1ccccc1)Nc1ccccc1	inconclusive: 11.2 µM [inhibitor, single point]
COc1ccc(-c2csc(NC(=O)c3cc(C)on3)c2C#N)cc1OC	inconclusive: 15.8 µM [inhibitor, single point]
CC(C)C(=O)Nc1cccc(NC(=S)NC(=O)c2ccccc2Cl)c1	inactive
O=C(C1=C(O)C(=O)N(Cc2ccco2)C1c1ccccc1)c1cccs1 (centres undefined)	inconclusive: 12.6 µM [inhibitor, partial curve, poor fit]
OCCCn1c(-c2ccccc2)nc(=S)c2c1CCCC2	inconclusive: 12.6 µM [inhibitor, partial curve, poor fit]
CCOc1ccc(/C(O)=C2/C(=O)C(=O)N(c3nc(C)c(C)s3)C2c2ccco2)cc1 (centres undefined)	inconclusive: 12.6 µM [inhibitor, single point]
Cc1cc(NC(=O)c2cc(C)on2)no1	inconclusive: 12.6 µM [inhibitor, single point]
COC(=O)CSc1nnc(CNC(=O)Cc2ccccc2)n1-c1ccccc1OC	inactive
Cc1n[nH]c(=O)n1-c1cccc(C(F)(F)F)c1	inactive
COC(=O)Nc1nc2ccc(C(=O)c3cccs3)cc2[nH]1	inconclusive: 28.2 µM [inhibitor, single point]
Cc1ccc(S(=O)(=O)N2CCC(C(=O)NCc3cccnc3)CC2)cc1	inconclusive: 31.6 µM [inhibitor, partial curve]
COc1ccc(-n2c(SCCC#N)nnc2-c2cc(Cl)ccc2OC)cc1Cl	inconclusive: 28.2 µM [inhibitor, single point]
CN(C)c1ncc2nc(-c3ccc(F)cc3)c(=O)n(CCc3ccccc3)c2n1	active: 10 µM
O=C(NC(=S)Nc1ccccc1)c1cc(-c2ccccc2)nc2ccccc12	inconclusive: 14.1 µM [inhibitor, single point]
CCN(CC)C(=O)CN1C(=O)NC2(CCc3ccccc3C2)C1=O (centres undefined)	inactive
CC(=O)c1cn(CC(=O)Nc2ccccc2)c2ccccc12	inconclusive: 28.2 µM [inhibitor, single point]
CCCCOC(=O)Nc1ccc(C(=O)OC)cc1	inactive
CCOC(=O)Cc1csc(-n2sc3ccccc3c2=O)n1	active: 7.94 µM

SMILES	Potency
O=C(CSc1ncnc2c1oc1ccccc12)Nc1cccc(C(F)(F)F)c1	inconclusive: 12.6 µM [inhibitor, single point]
Cc1cccc(CNc2cc(-c3ccc(N(C)C)cc3)ncn2)c1	inconclusive: 28.2 µM [inhibitor, single point]
Cc1cc(CNC(=O)C(C)n2nc(C)c([N+](=O)[O-])c2C)c2ccccc2n1 (centres undefined)	inconclusive: 2 µM [inhibitor, single point]
O=C1CC(Sc2nnc(-c3ccccc3)o2)C(=O)N1c1ccccc1 (centres undefined)	inconclusive: 8.91 µM [inhibitor, single point]
Cc1cccc(C2=NN(c3ccccc3)[C@H](CO)[C@H]2c2ccc(Cl)cc2)c1	inconclusive: 35.5 µM [inhibitor, single point]
Cc1cccc2cc(C(c3nnnn3Cc3ccccc3)N3CCN(c4ccccc4)CC3)c(=O)[nH]c12 (centres undefined)	inconclusive: 28.2 µM [inhibitor, single point]
O=C(NCc1ccco1)c1cc(-c2cccs2)on1	inconclusive: 31.6 µM [inhibitor, single point]
CSc1nnc2c3cc(C)ccc3n(Cc3ccccc3)c2n1	inconclusive: 20 µM [inhibitor, single point]
Cc1cc(C)c2nc(-c3ccccn3)cc(C(=O)Nc3cc(C)on3)c2c1	inconclusive: 12.6 µM [inhibitor, single point]
CCOc1cc(/C=N/NC(=O)CNc2cccc(C)c2)ccc1OC(=O)c1ccccc1	inactive
CCOC(=O)CC(NC(=O)c1cc2cc(Br)ccc2oc1=O)c1cccc([N+](=O)[O-])c1 (centres undefined)	inconclusive: 25.1 µM [inhibitor, single point]
COc1ccc(-c2cc(=O)c3cc(OC)ccc3o2)cc1	inconclusive: 11.2 µM [inhibitor, single point] and inconclusive: 14.1 µM [inhibitor, single point]
CCC(=O)Nc1nc(-c2ccc3c(c2)OCCO3)cs1	inactive
O=C(c1c(O)c2ccc(Cl)cc2[nH]c1=O)C1CC1	inconclusive: 22.4 µM [inhibitor, single point]
Cc1cc(NC(=O)CSc2ccc3nnc(-c4ccc(F)cc4)n3n2)no1	inconclusive: 11.2 µM [inhibitor, partial curve]
CSc1nccc(-c2nn(-c3ccc(C)cc3)ccc2=O)n1	inconclusive: 12.6 µM [inhibitor, single point]
COc1cccc(/C=N/NC(=O)C(=O)N/N=C/c2cccc(OC)c2O)c1O	inactive
COc1ccc(-c2nc3cnc(OC)nc3n(Cc3ccc(F)cc3)c2=O)cc1	active: 5.62 µM
CCc1ccc(-n2c(SCC(=O)c3ccc4c(c3)NC(=O)CO4)nc3ccccc3c2=O)cc1	inconclusive: 22.4 µM [inhibitor, single point]
Cc1ccc(Cn2c(SCC(=O)Nc3cc(C)on3)nc3ccccc3c2=O)cc1	inconclusive: 22.4 µM [inhibitor, single point]
O=C(COC(=O)CSc1ccc2ccccc2c1Br)NC1CC1	active: 10 µM
CCCNC(=O)c1cc(-c2ccc(Br)cc2)on1	inconclusive: 31.6 µM [inhibitor, single point]
C/C(CCCO)=N/Nc1ccc([N+](=O)[O-])cc1[N+](=O)[O-]	inconclusive: 5.01 µM [inhibitor, single point]

SMILES	Potency
COc1ccccc1C(=O)Nc1ccc(-c2nnn(CC(=O)N3CCOCC3)n2)cc1	inconclusive: 11.2 µM [inhibitor, single point]
CCN(C(=O)COC(=O)c1cc(-c2ccccc2)nc2ccc(Br)cc12)C1CCS(=O)(=O)C1 (centres undefined)	inconclusive: 12.6 µM [inhibitor, single point]
C/C(N)=C(/C#N)C(=O)CSc1nc2ccccc2c(=O)n1-c1ccc(C)cc1	inconclusive: 14.1 µM [inhibitor, single point]
O=C(OCc1cc2ccccc2[nH]c1=O)c1ccccn1	inconclusive: 12.6 µM [inhibitor, single point]
CC(C)(C)n1nnnc1C(c1ccc(C(F)(F)F)cc1)N(Cc1ccc(F)cc1)Cc1ccco1 (centres undefined)	inactive
O=C(COC(=O)c1ccccc1NC(=O)c1ccco1)Nc1ccc2c(c1)OC(F)(F)O2	inconclusive: 28.2 µM [inhibitor, single point]
CCn1nnnc1-c1ccc(OC)c(S(=O)(=O)Nc2ccc(OC)cc2)c1	inactive
O=S(=O)(c1ccccc1)N1CCN(C2CCCCCCC2)CC1	inactive
N#Cc1cccc(NC(=O)CSc2ccc3c4c(cccc24)C(=O)c2ccccc2-3)c1	inconclusive: 3.98 µM [inhibitor, full curve]
COc1ccc(N(C)S(=O)(=O)c2cccc(C(=O)NCC3CCCO3)c2)cc1 (centres undefined)	inactive
COC(=O)c1ccccc1NC(=O)c1cncc(Br)c1	inconclusive: 25.1 µM [inhibitor, single point]
CSc1ccc(Cl)c(C(=O)NCc2ccco2)c1	inactive
CCSc1nc(-c2ccccc2)c(C#N)c(=O)[nH]1	active: 2 µM
CCCOc1ccc(C(=O)NC(=S)Nc2nc3ccccc3s2)cc1	inconclusive: 28.2 µM [inhibitor, single point]
CCCCNS(=O)(=O)c1cccc(S(=O)(=O)N2CCCC2)c1	inactive
CCCCC1=CC2=C(c3ccco3)C(=O)C(C)(OC(=O)c3ccc(OC)cc3)C(=O)C2=CN1CC(C)C (centres undefined)	inconclusive: 3.16 µM [inhibitor, single point]
O=C(NC1CCCCC1)c1sc(N2CCOCC2)nc1-c1ccccc1	inconclusive: 28.2 µM [inhibitor, single point]
COC(=O)Cc1c(C)c2cc(Cl)c(OC(=O)c3ccco3)cc2oc1=O	inconclusive: 14.1 µM [inhibitor, partial curve]
Cc1noc(C)c1CSc1ccccc1C(=O)Nc1nccs1	inconclusive: 28.2 µM [inhibitor, single point]
Cc1nc(SCC(=O)NCc2ccccc2)c2oc3ccccc3c2n1	inconclusive: 28.2 µM [inhibitor, single point]
CC(C)C[C@H](NC(=O)[C@H](O)[C@H](N)Cc1ccccc1)C(=O)O	inactive
CCOc1ccccc1NC(=O)CSc1nc(N)c(C#N)cc1C#N	inconclusive: 28.2 µM [inhibitor, single point]
CN(c1nc2ccccc2n2c(-c3ccco3)nnc12)S(=O)(=O)c1ccccc1	active: 7.94 µM

From PubChem BioAssay AID1457 (National Center for Advancing Translational Sciences (NCATS), 2008)
